{
  "source": "the RNAGym collection of RNA variant scans (doi:10.7554/elife.90254)",
  "parents": {"B1": {"name": "LINE1-mini (parent)", "chain": "GGCAGAGCUCAACACAGCGUGGCAAAGUGGCUGUGGCUAGACUGCC"}},
  "note": "The source gives no read counts; variants with many changes may rest on few reads.",
  "data": [
    {"variants_of": "B1", "assay": "self-cleavage, relative activity (ratio to wild type); higher = more cleavage; in vitro, sequencing; the parent is a self-cleaving ribozyme", "values": [
      {"variant": "GGCAGAGCUCAACACAGCGUGGCAAAGGGGCUGUGGCUAGACUGAA", "note": "[U28G C45A C46A]", "self-cleavage": 0.39},
      {"variant": "GGCAAAGCUCAACACAGCGUAACAAAGUGGCUGUGGCUAGACUGGC", "note": "[G5A G21A G22A C45G]", "self-cleavage": 0.07},
      {"variant": "GGCAGAGCUCAACACAGCUUGGCAAAGUGCGUGUGGCUAGACUGCC", "note": "[G19U G30C C31G]", "self-cleavage": 0.03},
      {"variant": "GGCAGAGCUCAACACAGCGUGGCAAAUUGGUUGUGGCUAGACUGCG", "note": "[G27U C31U C46G]", "self-cleavage": 1.36},
      {"variant": "GGCAGAGCUCAACACAGCGUGGCAAAGUCGCUGUGGCUAGACUACG", "note": "[G29C G44A C46G]", "self-cleavage": 0.1},
      {"variant": "GGCAGAGCAAAACACAGCGUGUCAAAGUGGCUGUGGCUAGACUGCC", "note": "[U9A C10A G22U]", "self-cleavage": 0.12},
      {"variant": "GGCAGAGCCCAAUACAGCGUGGCAAAGUGUCUGUGGCUAGACUGAC", "note": "[U9C C13U G30U C45A]", "self-cleavage": 0.03},
      {"variant": "GGCAGAGCUCACCAGAGCGUGGCAAAGUGGCUGUGGCUAGUCUGCC", "note": "[A12C C15G A41U]", "self-cleavage": 0.01},
      {"variant": "GGCAGAGCUCAACACAGCGUGGCAAGGUGGCUGUGGUUAGACUGAC", "note": "[A26G C37U C45A]", "self-cleavage": 0.03},
      {"variant": "GCCGGAGCUCAACACAGCGUUGCAAUGUGGCUGUGGCUAGACUGCC", "note": "[G2C A4G G21U A26U]", "self-cleavage": 0.03},
      {"variant": "GGCAGAACUCAACACAGCGUGGUAAAGUGGUGGUGGCUAGGCUUCC", "note": "[G7A C23U C31U U32G A41G G44U]", "self-cleavage": 0.22},
      {"variant": "GGCAGAGCUCCACACAGCGUGGCAAAGUGGCUGUGACUAGUCUGCC", "note": "[A11C G36A A41U]", "self-cleavage": 0.02},
      {"variant": "GGCAGAGCUCAACACAGCGUGGCAAAGCGGCUGUGGCUAUACUACC", "note": "[U28C G40U G44A]", "self-cleavage": 0.07},
      {"variant": "GGCAGAGCGCAACACAACGUGGCAAAGUGGCUGUAGCUAGACGGCC", "note": "[U9G G17A G35A U43G]", "self-cleavage": 0.06},
      {"variant": "GCCAGAGCGCAACACAGCCUGGCAAAGUGAAUGUGGCUAGACUGCC", "note": "[G2C U9G G19C G30A C31A]", "self-cleavage": 0.02},
      {"variant": "GGAAGAGCACAACACAGCGUGGCAAAGGGGCUGUGGCAAGACUGCC", "note": "[C3A U9A U28G U38A]", "self-cleavage": 0.17},
      {"variant": "GGCAGCGCUCAACACAGCUUGGCAAAGUGGCUCAGGCUAUACUGCC", "note": "[A6C G19U G33C U34A G40U]", "self-cleavage": 0.18},
      {"variant": "GGCAGAGUUCAAGACAGCGUGGCAAAGUGGCCGUGGCUAGAUUGUU", "note": "[C8U C13G U32C C42U C45U C46U]", "self-cleavage": 0.05},
      {"variant": "GGCAGAGCUCAACACAGCGUGGCAAAAUGGCUGUGGCGAUACUGCC", "note": "[G27A U38G G40U]", "self-cleavage": 0.17},
      {"variant": "GGCAGAACUCAAGACAGCGUGGCAAAGUGGCUGUGGAUAGACUGCA", "note": "[G7A C13G C37A C46A]", "self-cleavage": 0.03},
      {"variant": "GGGAGAGCUCAACACAGCAUGGCAAAGUCGCUGUGGCUAGACUGCC", "note": "[C3G G19A G29C]", "self-cleavage": 0.92},
      {"variant": "GGCAGAGCCCAACACAGCAUGGCAAAGUGGCUGUGCCUAGAAUGCC", "note": "[U9C G19A G36C C42A]", "self-cleavage": 0},
      {"variant": "GGCAGAGCUCAACGGAGCAUGGCAAAGUGGCUGUGCCUAGUCGGGC", "note": "[A14G C15G G19A G36C A41U U43G C45G]", "self-cleavage": 0.02},
      {"variant": "GGUACAGGUCAAUACACCGUGGCAAAGUGACUCUGGCUAGACUGCG", "note": "[C3U G5C C8G C13U G17C G30A G33C C46G]", "self-cleavage": 0.06},
      {"variant": "GGCAGAGCUCAACACAACGAGGCAAAGUGGCUGUGGCUAGGCUGCC", "note": "[G17A U20A A41G]", "self-cleavage": 0.05},
      {"variant": "GCCAGAGCUCAACACAGCGCGGCAAAGUAGCUGUGGCAAGGCUGCC", "note": "[G2C U20C G29A U38A A41G]", "self-cleavage": 0.02},
      {"variant": "GGCAGAGCUCAAGACAGCGUGGCAAAGUGGCUGUGGCUAGAGUGCA", "note": "[C13G C42G C46A]", "self-cleavage": 0.04},
      {"variant": "AGCAGAGCUCAAAACAGCGUUGCAAAGUGGCUGUGGCAAGACUGCC", "note": "[G1A C13A G21U U38A]", "self-cleavage": 0},
      {"variant": "GGCAGUGCUAAACACAGAGUGGCAAAGUGGCUGUGGCUACACUACC", "note": "[A6U C10A C18A G40C G44A]", "self-cleavage": 0.02},
      {"variant": "GGCAGAGCUCACCACAGCGUGGCAAAGUGGCUGUGGAUAGACAGCC", "note": "[A12C C37A U43A]", "self-cleavage": 0},
      {"variant": "GGAGGAGCUCAACAUAGCGUGGCAAAGUGGCUGUGGCUAGACUGCC", "note": "[C3A A4G C15U]", "self-cleavage": 0.71},
      {"variant": "UGCAGAGCUCAACACAGCGUGACAAUGUGGCUGUGGCUAAACUGCC", "note": "[G1U G22A A26U G40A]", "self-cleavage": 0.02},
      {"variant": "GGCAGAGCUCAACACCGAGUGGCAAAGUGGCUGUGGCUAGAGUUCC", "note": "[A16C C18A C42G G44U]", "self-cleavage": 0.12},
      {"variant": "GACUGAUCUCAACACAGCGUGGCAAAGUGGCUGUGGCUAGACUGCU", "note": "[G2A A4U G7U C46U]", "self-cleavage": 0.41},
      {"variant": "GGCAGAGUUCAACACAGUGUGGCAUAGUGGCUGUGGCUAGACUGCC", "note": "[C8U C18U A25U]", "self-cleavage": 0.25},
      {"variant": "CACAGAGCUCAACACAGCGUGGCAUAGUGGCUGUGGCUAGACUGCC", "note": "[G1C G2A A25U]", "self-cleavage": 0.26},
      {"variant": "GGCUGAGCUCAAAAGAGCGUGGCAAAGUGGCUGUAACUAGACUGCC", "note": "[A4U C13A C15G G35A G36A]", "self-cleavage": 0.08},
      {"variant": "AGCAGAGCUCAACCCAGCGUGGCAAAGUGGGUGUGGCUAGACUGCC", "note": "[G1A A14C C31G]", "self-cleavage": 0.01},
      {"variant": "GGCAGAGCUGAACACACCGUGGCAAAGUGGCUGUGGCUAGACGGCC", "note": "[C10G G17C U43G]", "self-cleavage": 0.01},
      {"variant": "GGCCGAGAUCAACACAGCGUGGCAAAGUGGCUUUGGCUAGACUGCC", "note": "[A4C C8A G33U]", "self-cleavage": 0.26},
      {"variant": "GGCAGAGCUCAACACAGCGCGGCAAAGGGGCUGUGGCUGCCCUGCC", "note": "[U20C U28G A39G G40C A41C]", "self-cleavage": 0.06},
      {"variant": "GGCGGAGCUCAACACAGCGUGGCAAAAAGGCUGUGGCUAGACUGAC", "note": "[A4G G27A U28A C45A]", "self-cleavage": 0.11},
      {"variant": "GGCAGAGCUCAAUACAGCGUGGUAAAGUGGCUGAAGCUAGACUGCC", "note": "[C13U C23U U34A G35A]", "self-cleavage": 0.14},
      {"variant": "GGCAGAUCUCAACACAGCGUGGCAAAGUGGCUGUGGUUAUACUGCC", "note": "[G7U C37U G40U]", "self-cleavage": 0.09},
      {"variant": "GGCAAAGCCCAACACAGCGUGGCAAAAUGGCUGUGGCCAGACUGCC", "note": "[G5A U9C G27A U38C]", "self-cleavage": 0},
      {"variant": "GGCAGAGCUCAACACCGCUUGGCCAGGUGGCUGUGGCUAGACUUCC", "note": "[A16C G19U A24C A26G G44U]", "self-cleavage": 0.05},
      {"variant": "GGCAGAGCUCAACACAACGUGUCAAACUGGCUGUGGCUAGACUACC", "note": "[G17A G22U G27C G44A]", "self-cleavage": 0.14},
      {"variant": "GGCAGAGCUCAGCACAGCAUGGCAAAGUGGCUGUGGUGAGACUGCC", "note": "[A12G G19A C37U U38G]", "self-cleavage": 0},
      {"variant": "GGCAGUUCUCAACACAGGGUGGCAAAGUGCCUGUGGCUAGACUGCC", "note": "[A6U G7U C18G G30C]", "self-cleavage": 0.07},
      {"variant": "GGCAGAGCUCAACUCCGCUUGGCAAAGUGGCUGUGGCUAGACUGCC", "note": "[A14U A16C G19U]", "self-cleavage": 0.03},
      {"variant": "GUCGGAUCUCAACACAGCGUGGCAAAGUGGCUGUGGCUAGACUGCC", "note": "[G2U A4G G7U]", "self-cleavage": 0.1},
      {"variant": "GGCAGAGCUCAACACAGUUUUGCAAUGUGGCUGUGUCUAGACUGCC", "note": "[C18U G19U G21U A26U G36U]", "self-cleavage": 0.02},
      {"variant": "GGCAGAGCACAACACAGCGUGGCAAAGUUCCUGUGGCUAGACUGCC", "note": "[U9A G29U G30C]", "self-cleavage": 0.03},
      {"variant": "CGCAGAGCUCAACACAGCGUGGCAAAGUCGCUGUGGCUCGAAUGCC", "note": "[G1C G29C A39C C42A]", "self-cleavage": 0},
      {"variant": "AGCAGAGCUUAGCACAGCGUGGCAAAGUGGCUGUGGCUAGAGUGCC", "note": "[G1A C10U A12G C42G]", "self-cleavage": 0.1},
      {"variant": "GGCAGAUCUGAACACAGCGUGGCAAGGUGGCUGUGGCUAGGCUGAC", "note": "[G7U C10G A26G A41G C45A]", "self-cleavage": 0.01}
    ]}
  ]
}
